{
  "source": "PubChem BioAssay AID1030",
  "about": "(National Center for Advancing Translational Sciences (NCATS), 2008)",
  "note": "Values joined by “and” are separate entries in the source; they are usually repeats but may differ in a detail not shown here. Equal entries are not always repeated. In all, about 220,000 compounds went through this assay and about 16,000 (7.3%) were called active. Inconclusive results, whose numbers are uncertain, are shown with a selection of clear calls. Calls follow the shape of the dose curve; as a rule, active = well fitted inhibition curve with a large enough effect (not every such curve was filed as active); inconclusive = small, poorly fitted or top-dose-only effect, or another doubt; inactive = no such curve, though single readings can be large or run the other way. Potencies of inconclusive entries are doubtful fits and often do not repeat. Potency is read from the fitted curve at half-maximal effect; tags tell the direction and shape of the fitted curve.",
  "data": [
    {"target": "Aldehyde dehydrogenase 1A1 (Homo sapiens) (UniProt P00352)", "sequence (P00352 whole entry, looked up)": "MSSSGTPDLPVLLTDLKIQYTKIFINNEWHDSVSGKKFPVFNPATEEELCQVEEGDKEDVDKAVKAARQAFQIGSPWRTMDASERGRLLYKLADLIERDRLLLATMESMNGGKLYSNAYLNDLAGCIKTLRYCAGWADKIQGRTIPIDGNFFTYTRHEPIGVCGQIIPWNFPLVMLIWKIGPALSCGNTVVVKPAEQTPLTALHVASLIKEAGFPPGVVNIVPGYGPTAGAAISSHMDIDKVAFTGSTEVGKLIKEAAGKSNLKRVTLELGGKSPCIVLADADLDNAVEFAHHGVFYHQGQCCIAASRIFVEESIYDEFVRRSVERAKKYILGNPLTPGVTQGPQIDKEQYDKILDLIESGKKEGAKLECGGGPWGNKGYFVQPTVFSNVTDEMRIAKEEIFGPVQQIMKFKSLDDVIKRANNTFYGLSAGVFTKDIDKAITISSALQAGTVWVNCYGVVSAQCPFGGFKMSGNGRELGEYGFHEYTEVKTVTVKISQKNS", "assay": "qHTS Assay for Inhibitors of Aldehyde Dehydrogenase 1 (ALDH1A1);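 as to activity, negative = inhibition: plate controls were no enzyme wells and a reference inhibitor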", "conditions": "Purified ALDH1A1, NADH fluorescence, propionaldehyde substrate; series mostly up to 75.3 µM; activity, negative = inhibition: at the top concentration", "values": [
      {"molecule": "CSc1ccc(S(=O)(=O)N(C)Cc2ccccc2)cc1", "Potency": "inconclusive: 39.8 µM [inhibitor, single point]"},
      {"molecule": "CCC1=C2CC[C@H]3C(=O)N(CC(=O)OC)C(=O)[C@H]3[C@H]2[C@@]2(Cc3ccccc3)C(=NCCc3c[nH]c4ccccc34)OC(=O)N2C1=O", "activity, negative = inhibition": "inactive: -6.82%"},
      {"molecule": "O=C(Nc1ccc(N2CCOCC2)c([N+](=O)[O-])c1)c1ccco1", "Potency": "inconclusive: 39.8 µM [inhibitor, single point]"},
      {"molecule": "Cc1nc(N2CCN(C)CC2)c2cc(-c3ccccc3)sc2n1", "Potency": "inconclusive: 22.4 µM [inhibitor, partial curve]"},
      {"molecule": "Cc1ccc(NC(=O)c2cc(=O)c3ccccc3o2)c(C)c1", "activity, negative = inhibition": "inactive: 1.88%"},
      {"molecule": "Cc1ccc(NCc2nc3ccccc3n2C)cc1", "Potency": "inconclusive: 31.6 µM [inhibitor, single point]"},
      {"molecule": "COCCn1nnnc1C(c1cc2cc(C)ccc2[nH]c1=O)N1CCN(C2CCCCC2)CC1", "note": "(configuration not stated)", "Potency": "inconclusive: 22.4 µM [inhibitor, partial curve]"},
      {"molecule": "Cc1ccnc(N2CCC(C(=O)NC3CCCCCC3)CC2)n1", "Potency": "inconclusive: 39.8 µM [inhibitor, single point]"},
      {"molecule": "COc1ccccc1N1CCN(C(=O)c2cc(-c3ccc4c(c3)OCO4)on2)CC1", "Potency": "inconclusive: 39.8 µM [inhibitor, single point]"},
      {"molecule": "O=c1cc(N2CCN(c3ccccc3)CC2)[nH]c(=O)n1Cc1ccc(F)cc1", "Potency": "inconclusive: 10 µM [inhibitor, partial curve]"},
      {"molecule": "COC(=O)C1CCN(c2cc(=O)n(C3CCCCC3)c(=O)[nH]2)CC1", "Potency": "inconclusive: 25.1 µM [inhibitor, partial curve]"},
      {"molecule": "Cn1nnc(NC(=O)CSc2ncn[nH]2)n1", "activity, negative = inhibition": "inactive: 3.76%"},
      {"molecule": "CCN(CC)S(=O)(=O)c1ccc(N2CCCC2)c(NS(=O)(=O)c2ccc(F)cc2)c1", "Potency": "active: 0.631 µM"},
      {"molecule": "CCN=C1SC(CC(=O)Nc2sc(C)c(C)c2C(=O)OC)C(=O)N1CC", "note": "(configuration not stated)", "Potency": "inconclusive: 37.7 µM [inhibitor, single point]"},
      {"molecule": "Cc1ccccc1NCc1ccccc1O", "Potency": "inconclusive: 39.8 µM [inhibitor, single point]"},
      {"molecule": "COc1cc(/C=C/C(=O)OCC(=O)N2CCc3ccccc3C2)ccc1O", "Potency": "inconclusive: 35.5 µM [inhibitor, single point]"},
      {"molecule": "CC(=O)c1ccc(NC(=O)Cn2nc(C)c([N+](=O)[O-])c2C)cc1", "Potency": "inconclusive: 39.8 µM [inhibitor, single point]"},
      {"molecule": "CCOc1ccc(C(=O)Nc2ccc(NC(=O)c3cccs3)cc2)cc1[N+](=O)[O-]", "activity, negative = inhibition": "inactive: 19.8%"},
      {"molecule": "O=C(N/N=C1\\CC2CC=CC12)c1ccccc1Cl", "note": "(configuration not stated)", "activity, negative = inhibition": "inactive: -6.15%"},
      {"molecule": "Cc1nc(N2CCN(C(=O)c3ccco3)CC2)c2c3c(sc2n1)CC(C)CC3", "note": "(configuration not stated)", "Potency": "active: 12.6 µM"},
      {"molecule": "Cc1cccc(OCC(=O)N2CCN(C(=O)c3cccs3)CC2)c1", "Potency": "inconclusive: 44.7 µM [inhibitor, single point]"},
      {"molecule": "CCC(=O)Nc1ccc(SC#N)cc1C", "Potency": "active: 2.51 µM"},
      {"molecule": "Cc1c(/C=N\\NC(=O)C2COc3ccccc3O2)c2ccccc2n1C", "note": "(configuration not stated)", "Potency": "inconclusive: 39.8 µM [inhibitor, single point]"},
      {"molecule": "COc1ccc(NC(=O)c2cc(-c3cccs3)on2)cc1OC", "Potency": "inconclusive: 15.8 µM [inhibitor, partial curve]"},
      {"molecule": "CCOC(=O)c1cc2c(nc1N)CC(C)(C)OC2", "Potency": "inconclusive: 31.6 µM [inhibitor, partial curve]"},
      {"molecule": "O=C(CC1CCCCC1)NCc1cn2ccsc2n1", "activity, negative = inhibition": "inactive: 10.2%"},
      {"molecule": "Cc1cc(-c2nnc(CCC(=O)N3CCN(Cc4cccc(F)c4)CC3)o2)c(C)o1", "Potency": "active: 28.2 µM"},
      {"molecule": "COc1ccc(-c2cc(C(F)(F)F)nc(SCCC(=O)N3CCCC3)n2)cc1", "Potency": "inconclusive: 14.1 µM [inhibitor, partial curve]"},
      {"molecule": "COc1ccc(C(=O)N2CCN(Cc3nc(CC4CC4)no3)CC2)cc1", "Potency": "inconclusive: 17.8 µM [inhibitor, partial curve]"},
      {"molecule": "CN(C)C(=O)c1ccc(-c2cc(N(C)Cc3ccco3)ncn2)cc1", "Potency": "inconclusive: 39.8 µM [inhibitor, single point]"},
      {"molecule": "CCN(CC)C(=O)CSc1nsc(SCC(=O)N(CC)CC)c1C#N", "Potency": "inconclusive: 25.1 µM [inhibitor, partial curve]"},
      {"molecule": "Cc1cc(C)nc(N2CCCC(C(=O)NCc3cccs3)C2)n1", "note": "(configuration not stated)", "Potency": "inconclusive: 39.8 µM [inhibitor, single point]"},
      {"molecule": "CCN(CC)CCNS(=O)(=O)c1ccc(Cl)cc1", "activity, negative = inhibition": "inactive: -5.71%"},
      {"molecule": "N.N.O=C(O)C1(C(=O)O)CCC1.[Pt]", "Potency": "inconclusive: 25.1 µM [inhibitor, partial curve] and inconclusive: 22.4 µM [inhibitor, partial curve, poor fit]"},
      {"molecule": "CCCNC(=O)C(=O)NCCC1=CCCCC1", "activity, negative = inhibition": "inactive: 6.09%"},
      {"molecule": "CCOC(=O)c1ccc(NC(=O)CC2Sc3ncnn3C2=O)cc1", "note": "(configuration not stated)", "Potency": "active: 1 µM"},
      {"molecule": "Cc1c(N/C(=N/S(=O)(=O)c2ccccc2)c2ccc(Cl)cc2)c(=O)n(-c2ccccc2)n1C", "Potency": "inconclusive: 39.8 µM [inhibitor, single point]"},
      {"molecule": "COc1ccc(CCN(Cc2ccccn2)C(=S)Nc2ccccc2F)cc1OC", "Potency": "inconclusive: 4.47 µM [inhibitor, single point]"},
      {"molecule": "CCOC(=O)/C=C/C(=O)Nc1ccc(S(=O)(=O)Nc2c(C)cc(C)cc2C)cc1", "Potency": "active: 12.6 µM"},
      {"molecule": "CCOc1cc(/C=C(\\C#N)C(=O)NCC2CCCO2)ccc1O", "note": "(configuration not stated)", "Potency": "active: 28.2 µM"},
      {"molecule": "CC1CCCCN1C(=O)c1cc2nc(-c3ccccc3)cc(-c3ccccc3)n2n1", "note": "(configuration not stated)", "Potency": "inconclusive: 28.2 µM [inhibitor, partial curve]"},
      {"molecule": "CCOc1ccccc1CNC(=O)c1cc2oc3ccccc3c2n1C", "Potency": "inconclusive: 35.5 µM [inhibitor, single point]"},
      {"molecule": "Cc1ccc(NC(=S)N2CCN(S(=O)(=O)c3c(F)cccc3F)CC2)cc1C", "Potency": "inconclusive: 31.6 µM [inhibitor, single point]"},
      {"molecule": "Cn1c(SCC(=O)C(C)(C)C)nnc1-c1ccncc1", "Potency": "inconclusive: 23.8 µM [inhibitor, single point]"},
      {"molecule": "COc1ccc2nc3oc(C(=O)NC4CCN(Cc5ccccc5)CC4)cc3cc2c1", "Potency": "inconclusive: 6.31 µM [inhibitor, full curve]"},
      {"molecule": "CCC(C)(C)C1CCC(=NNC(=S)Nc2ccccc2)CC1", "note": "(configuration not stated)", "Potency": "inconclusive: 37.7 µM [inhibitor, single point]"},
      {"molecule": "CCOC(=O)C1=C(c2ccccc2)NC(SC)=C(C#N)C1c1ccco1", "note": "(configuration not stated)", "Potency": "inconclusive: 35.5 µM [inhibitor, single point]"},
      {"molecule": "C#Cc1ccc([C@@H]2C=C(C(=O)O)O[C@H](OCc3ccc(CO)cc3)C2)cc1", "activity, negative = inhibition": "inactive: -13.1%"},
      {"molecule": "CN(C(=O)c1ccc(Cl)cc1)C1=CCCCC1CCC#N", "note": "(configuration not stated)", "activity, negative = inhibition": "inactive: -5.67%"},
      {"molecule": "CCC(NC(=O)c1ccccc1O)c1ccccc1", "note": "(configuration not stated)", "Potency": "inconclusive: 35.5 µM [inhibitor, single point]"},
      {"molecule": "CN(C)/C=C1\\C=C(c2ccccc2)OC1=O", "Potency": "active: 10 µM"},
      {"molecule": "COc1ccc(Nc2oc(-c3ccco3)nc2S(=O)(=O)c2ccc(F)cc2)cc1", "Potency": "inconclusive: 18.9 µM [inhibitor, partial curve]"},
      {"molecule": "CC(=O)c1nc(N2C(=O)CC(Cc3cccc(C)c3)C2=O)sc1C", "note": "(configuration not stated)", "Potency": "inconclusive: 20 µM [inhibitor, single point]"},
      {"molecule": "O=C(CSc1nnc(-c2ccccc2Br)o1)N1CCc2ccccc2C1", "Potency": "inconclusive: 39.8 µM [inhibitor, single point]"},
      {"molecule": "CN(C(=O)COC(=O)c1ccc2ccccc2n1)C1CCS(=O)(=O)C1", "note": "(configuration not stated)", "activity, negative = inhibition": "inactive: -1.97%"},
      {"molecule": "O=C(CCc1ccccc1)NNC(=S)NC(=O)c1ccccc1", "Potency": "active: 17.8 µM"},
      {"molecule": "COC(=O)Cc1ccc(O)c(N)c1", "Potency": "active: 28.2 µM"},
      {"molecule": "CCC(C(=O)Nc1sc(C(N)=O)c(C)c1C(=O)OC)c1ccccc1", "note": "(configuration not stated)", "Potency": "active: 12.6 µM"},
      {"molecule": "Cc1sc2ncnc(NCC(c3ccco3)N(C)C)c2c1C", "note": "(configuration not stated)", "Potency": "inconclusive: 6.31 µM [inhibitor, partial curve]"},
      {"molecule": "COc1cccc(/C=C2\\SC(=S)N(C(Cc3ccccc3)C(=O)O)C2=O)c1", "note": "(configuration not stated)", "Potency": "inconclusive: 5.01 µM [inhibitor, full curve]"},
      {"molecule": "CCN(CC)c1ccc(NC(=O)c2nc3nc(C)cc(C(F)F)n3n2)cc1", "Potency": "active: 11.2 µM"},
      {"molecule": "C=CCNCCCCOc1ccc(OCc2ccccc2)cc1", "Potency": "inconclusive: 39.8 µM [inhibitor, single point]"},
      {"molecule": "CC(=O)c1ccc(N2CCN(C(=O)Cc3cccs3)CC2)cc1", "Potency": "inconclusive: 37.7 µM [inhibitor, partial curve, poor fit]"},
      {"molecule": "O=C(/C=C/c1ccccc1)NNC1=NS(=O)(=O)c2ccccc21", "activity, negative = inhibition": "inactive: 2.51%"},
      {"molecule": "Cc1ccc2oc3nc(C)c(C(=O)O)cc3c(=O)c2c1", "Potency": "inconclusive: 11.2 µM [inhibitor, partial curve]"},
      {"molecule": "N[C@@H]1[C@@H]2[C@@H]3C[C@H]4N(CC[C@@]14C(=O)C(=O)O)CC3=CCO[C@@H]2CC(=O)O", "activity, negative = inhibition": "inactive: 0.786% [at 13.5 µM]"},
      {"molecule": "CCOC(=O)c1c(C)[nH]c(C(=O)CSc2nc(C)cc(C)n2)c1C", "Potency": "active: 15.8 µM"},
      {"molecule": "Cc1ccc2nc(SCC(=O)O)nc(C)c2c1", "Potency": "inconclusive: 39.8 µM [inhibitor, single point]"},
      {"molecule": "COCc1cc(C)nc(SCC(=O)Nc2ccc3c(c2)OCO3)c1C#N", "Potency": "inconclusive: 39.8 µM [inhibitor, single point]"},
      {"molecule": "O=C1OC(/C=C/c2ccc(Cl)cc2Cl)=NC/1=C\\c1cccs1", "Potency": "active: 3.16 µM"},
      {"molecule": "Cc1ccccc1Br", "Potency": "inconclusive: 28.2 µM [inhibitor, single point]"},
      {"molecule": "CCCCOC(=O)c1ccc(Nc2ncnc3nc[nH]c23)cc1", "Potency": "inconclusive: 39.8 µM [inhibitor, single point]"}
    ]}
  ]
}
